Reference: PubChem BioAssay AID624296 (National Center for Advancing Translational Sciences (NCATS), 2012)
Screen size: about 350,000 compounds; about 9,900 (2.8%) were called active. Inconclusive means that the source gave no clear call. Such entries were picked first, then a sample of the others. Calls come from the whole dose curve; as a rule, active = well fitted activation curve with a large enough effect; inconclusive = small, poorly fitted or top-dose-only effect; inactive = no such curve, though single readings can be large or run the other way. No potency is given beside an inconclusive call; the fits are too rough.

Experiment: A quantitative high throughput screen for small molecules that induce DNA re-replication in MCF 10a normal breast cells. For activity, positive = re-replication: % of control where 0% means no effect. Note: nearly all actives have a fitted effect of over 50% in size.
Details: MCF 10A DNA re-replication, Hoechst nuclear intensity, 48 h; activity, positive = re-replication: at 46.1 µM (top of the series)
Potency is the fitted concentration of half-maximal effect; tags give direction and shape of the fitted curve.

Question: With `CC(=O)c1cc(C)ccc1OC(=O)CCN1C(=O)C2C3c4ccccc4C(c4ccccc43)C2C1=O` (configuration not stated) as the compound, how does the “activity, positive = re-replication” value read?
Answer: The value was inactive: -22.1%.

Question: With `CCn1cc(CN2CCC(n3nccc3NC(=O)c3cccc(F)c3)CC2)cn1` as the compound, how does the Potency read?
Answer: The Potency was inconclusive [activator, partial curve, poor fit].

Question: Which Potency does the source give for `COc1ccc(/C=C2\SC(=S)N(CC(=O)N(C)C3CCS(=O)(=O)C3)C2=O)cc1` (configuration not stated) here?
Answer: Its Potency is active: 20.6 µM.

Question: With `Cc1ccc(-n2c(N)c(C(=O)N3CCOCC3)sc2=S)c(C)c1` as the compound, how does the Potency read?
Answer: Its Potency is inconclusive [activator, partial curve, poor fit].

Question: With `Cc1cccc(S(=O)(=O)C(C#N)c2nc3ccccc3nc2N2CCCC2)c1` (configuration not stated) as the compound, how does the Potency read?
Answer: Its Potency is inconclusive [activator, partial curve, poor fit].

Question: For `CN(c1ccc(O)cc1)c1nc(-c2cccs2)cs1`, which Potency is on record?
Answer: Its Potency is inconclusive [activator, single point].

Question: Which Potency does the source give for `Cc1ccnc(NC(=O)C2CCC(CNc3c(N4CCCC4)c(=O)c3=O)CC2)c1` (configuration not stated) here?
Answer: The Potency was inconclusive [activator, single point].

Question: For `COC(=O)c1c(C)[nH]c(C(=O)OCC(=O)c2c(N)n(CC(C)C)c(=O)n(C)c2=O)c1C`, which Potency is on record?
Answer: The Potency was inconclusive [activator, single point].

Question: Which Potency does the source give for `C=C(C)COc1ccc(-c2ncncc2-c2ccc(Cl)cc2)c(O)c1` here?
Answer: Its Potency is active: 14.6 µM.

Question: Which Potency does the source give for `Cc1ccc(S(=O)(=O)N(Cc2cc3cccc(C)c3[nH]c2=O)c2ccccc2)cc1` here?
Answer: Its Potency is inconclusive [activator, single point].

Question: For `CC(C)(C)NC(=O)C[C@H]1C[C@H](C(=O)N2CCCCC2)[C@@]2(C)c3[nH]c4cc(-c5ccco5)ccc4c3CCN2C1=O`, which Potency is on record?
Answer: The Potency was inconclusive [activator, single point].

Question: Which Potency does the source give for `Cc1ccccc1N1CCN(c2ccc(NC(=O)C3CCCCC3C(=O)O)cc2)CC1` (configuration not stated) here?
Answer: The Potency was inconclusive [activator, partial curve].

Question: With `CCCC1C(=O)N(c2ccccc2)C1c1ccccc1` (configuration not stated) as the compound, how does the “activity, positive = re-replication” value read?
Answer: The value was inactive: -15.4%.

Question: With `CC(C)n1c(O)c(/C=C2\C=NN=C2c2ccccc2)sc1=S` as the compound, how does the Potency read?
Answer: The Potency was inconclusive [activator, partial curve, poor fit].

Question: For `COc1cc(C(=O)NCC(c2cccs2)N2CCOCC2)cc(Br)c1OCc1ccccc1` (configuration not stated), which Potency is on record?
Answer: Its Potency is inconclusive [activator, single point].

Question: Which Potency does the source give for `O=C1NC(=Nc2cccnc2)S/C1=C\c1cccc(F)c1` here?
Answer: Its Potency is inconclusive [activator, single point].

Question: Which “activity, positive = re-replication” value does the source give for `Cc1nc2ccccc2c2oc(C(=O)NCc3ccccn3)cc12` here?
Answer: The value was inactive: 14.2%.
